Assay results taken from publication PMC4833300, “Identification of Trypanocidal Activity for Known Clinical Compounds Using a New Trypanosoma cruzi Hit-Discovery Screening Cascade” (PLoS Neglected Tropical Diseases, 2016).
Where two headings read alike, the source gives them in different places.

What was measured:
[1] = system: Vero cells; assay: Host cell toxicity read-out of the primary assay (Vero cell count); type: cell-based; conditions: for EC50: Chlorocebus sabaeus, Vero, read-out: pEC50 (Vero) (converted)
Experimental: (§1) The compounds tested were obtained from the NIH (Clinical Collection) and from SelleckChem (FDA-approved drug library). Compounds were dispensed into black 384-well assay plates (Corning) by acoustic dispensing (LabCyte ECHO). […] Potencies are reported as pEC50 (-LOG(EC50[M])).
(§2) For the primary intracellular assay the infection conditions were chosen so that no trypomastigote egress occurs during the compound incubation time. First, Vero cells were infected overnight with tissue culture derived T. cruzi trypomastigotes in T225 tissue culture flasks (MOI 5). Next, any remaining free trypomastigotes were washed away with serum free MEM and the infected Vero cells were harvested by trypsinisation. The infected Vero cells were then plated into 384-well plates containing the compounds to be tested, at 4000 cells per well in MEM media with 1% FCS. […] The plates were imaged on a Perkin Elmer Operetta high-content imaging system using a 20x objective. Images were analysed using the Columbus system (Perkin Elmer). The algorithm for the primary assay first identified the Vero nuclei followed by demarcation of the cytoplasm and identification of intracellular amastigotes. This algorithm reported mean number of parasites per Vero cell and total number of Vero cells. Data analysis was as described in [22]. […] Hits from the primary screen were selected based on the following criteria: T. cruzi activity (percent inhibition) > (median T. cruzi percent inhibition + 3 x robust Standard Deviation) and Vero activity (percent inhibition) < (median percent Vero inhibition + 3 x robust Standard Deviation).

[2] = system: intracellular T. cruzi amastigotes; assay: Primary high-content intracellular T. cruzi amastigote assay; type: cell-based, Trypanosoma cruzi (Silvio X10/7 A1) in Vero cells; conditions: for EC50: Trypanosoma cruzi, read-out: pEC50 (cruzi) (converted)
Experimental: as §1, §2

[3] = system: intracellular T. cruzi; assay: Static-cidal assay (percent infected Vero cells, 96 h); type: cell-based, Trypanosoma cruzi (Silvio X10/7 A1) in Vero cells; conditions: Trypanosoma cruzi, 0% = starting level of infection, 100% = 50μM Nifurtimox at 96h, only from concentrations not toxic to the host cells, read-out: MAX PI (SC), Maximum Percent Inhibition in the static cidal assay
Experimental: The secondary static-cidal assay uses the same protocol as the standard assay with the following changes: infection is done at MOI 10, and infected Vero cells are incubated 88h at 37°C in presence of 5% CO2 prior to trypsinisation and plating. Four hours after plating a control plate (no compounds) was fixed with formaldehyde as described above. Compound containing plates were fixed after incubation for 96 hours. Compounds are run as ten point dose response curves in triplicate. The algorithm for the secondary assay was similar to the primary assay but reported percent infected Vero cells instead of the mean number of parasites.
To assess screening hits for their ability to be cytocidal rather than cytostatic or growth slowing we developed a medium throughput (400 compounds / batch) assay to predict cidality of compounds against intracellular T. cruzi. […] Instead we developed an algorithm that assesses whether a Vero cell is infected or not, and we used the percentage of infected cells as primary measurement for the static-cidal assay. In order to readily identify cidal compounds we normalised the raw data using the starting level of infection as 0% effect and the final level of infection in presence of 50μM Nifurtimox as 100% effect control.

[4] = hits of the bio-actives screen, 10-point dose-response, top concentration 50μM, 72h

Compound	EC50 [1, 4] [µM]	EC50 [2, 4] [µM]	also measured
O=C1CCc2ccc(OCCCCN3CCN(c4cccc(Cl)c4Cl)CC3)cc2N1 [Aripiprazole]	12.6	2.51	–
CN1CCC[C@@H]1CCO[C@](C)(c1ccccc1)c1ccc(Cl)cc1 [Clemastine]	25.1	0.1	Emax [3]: 108%
CN(C)CCCN1c2ccccc2CCc2ccc(Cl)cc21 [Clomipramine]	15.8	6.31	–
Clc1ccccc1C(c1ccccc1)(c1ccccc1)n1ccnc1 [Clotrimazole]	12.6	0.00631	–
Clc1ccc2c(c1)CCc1cccnc1C2=C1CCNCC1 [Desloratadine]	–	–	EC50 ([1]; 72 h): 15.8 µM; EC50 ([2]; 72 h): 6.31 µM
Clc1ccc(COC(Cn2ccnc2)c2ccc(Cl)cc2Cl)cc1 (stereo not shown) [Econazole]	10	0.02	–
CNCCC(Oc1ccc(C(F)(F)F)cc1)c1ccccc1 (stereo not shown) [Fluoxetine]	20	6.31	–
OCCN1CCN(CCCN2c3ccccc3Sc3ccc(C(F)(F)F)cc32)CC1 [Fluphenazine]	–	3.16	–
CN(C)C(=O)C(CCN1CCC(O)(c2ccc(Cl)cc2)CC1)(c1ccccc1)c1ccccc1 [Loperamide]	–	–	EC50 ([2]; 72 h): 3.98 µM
CNCCCC12CCC(c3ccccc31)c1ccccc12 [Maprotilline]	–	–	pEC50 (Vero) [1, 4]: 4.8; pEC50 (cruzi) [2, 4]: 5.3
Clc1ccc(COC(Cn2ccnc2)c2ccc(Cl)cc2Cl)c(Cl)c1 (stereo not shown) [Miconazole]	7.94	0.0316	–
CN1CCN(CCCN2c3ccccc3Sc3ccc(Cl)cc32)CC1 [Prochlorperazine]	6.31	2.51	–
CSc1ccc2c(c1)N(CCC1CCCCN1C)c1ccccc1S2 (stereo not shown) [Thioridazine]	6.31	2.51	–
